Assay results: the supplement of paper PMC11876631
Substitutions are numbered along the chain they refer to. Names and notes keep the numbering of the source. ± gives the standard deviation of the averaged measurements. Laboratory Escherichia coli strains with one amino-acid change in an essential protein, pooled on minimal glucose agar with carbenicillin or gentamicin at twice the control MIC (plus kanamycin and chloramphenicol for the plasmids), 48 h. Fold change of barcode share against drug-free plates; higher = less susceptible. Active = above 20 in both replicates (the paper's putatively resistant). '<' = one read or none on drug, '>' = one read or none on a drug-free plate. Shares are relative, so most strains fall below 1 when a few take over. Listed are strains with at least 15 reads on both drug-free plates, and hits; most hits rest on fewer reference reads. Replicate rank correlation about 0.5. Edits are read from barcodes.

B1: metL F638P (protein)
chain: MSVIAQAGAKGRQLHKFGGSSLADVKCYLRVAGIMAEYSQPDDMMVVSAAGSTTNQLINWLKLSQTDRLSAHQVQQTLRRYQCDLISGLLPAEEADSLISAFVSDLERLAALLDSGINDAVYAEVVGHGEVWSARLMSAVLNQQGLPAAWLDAREFLRAERAAQPQVDEGLSYPLLQQLLVQHPGKRLVVTGFISRNNAGETVLLGRNGSDYSATQIGALAGVSRVTIWSDVAGVYSADPRKVKDACLLPLLRLDEASELARLAAPVLHARTLQPVSGSEIDLQLRCSYTPDQGSTRIERVLASGTGARIVTSHDDVCLIEFQVPASQDFKLAHKEIDQILKRAQVRPLAVGVHNDRQLLQFCYTSEVADSALKILDEAGLPGELRLRQGLALVAMVGAGVTRNPLHCHRFWQQLKGQPVEFTWQSDDGISLVAVLRTGPTESLIQGLHQSVFRAEKRIGLVLFGKGNIGSRWLELFAREQSTLSARTGFEFVLAGVVDSRRSLLSYDGLDASRALAFFNDEAVEQDEESLFLWMRAHPYDDLVVLDVTASQQLADQYLDFASHGFHVISANKLAGASDSNKYRQIHDAFEKTGRHWLYNATVGAGLPINHTVRDLIDSGDTILSISGIFSGTLSWLPLQFDGSVPFTELVDQAWQQGLTEPDPRDDLSGKDVMRKLVILAREAGYNIEPDQVRVESLVPAHCEGGSIDHFFENGDELNEQMVQRLEAAREMGLVLRYVARFDANGKARVGVEAVREDHPLASLLPCDNVFAIESRWYRDNPLVIRGPGAGRDVTAGAIQSDINRLAQLL
B2: metR F37A (protein)
chain: MIEVKHLKTLQALRNCGSLAAAAATLHQTQSALSHQASDLEQRLGFRLFVRKSQPLRFTPQGEILLQLANQVLPQISQALQACNEPQQTRLRIAIECHSCIQWLTPALENFHKNWPQVEMDFKSGVTFDPQPALQQGELDLVMTSDILPRSGLHYSPMFDYEVRLVLAPDHPLAAKTRITPEDLASETLLIYPVQRSRLDVWRHFLQPAGVSPSLKSVDNTLLLIQMVAARMGIAALPHWVVESFERQGLVVTKTLGEGLWSRLYAAVRDGEQRQPVTEAFIRSARNHACDHLPFVKSAERPTYDAPTVRPGSPARL
B3: metR F37W (protein)
chain: B2 chain with A37W
B4: metR F37Q (protein)
chain: B2 chain with A37Q
B5: metR F37D (protein)
chain: B2 chain with A37D
B6: metR F37P (protein)
chain: B2 chain with A37P
B7: mraY L5W (protein)
chain: MLVWWAEHLVKYYSGFNVFSYLTFRAIVSLLTALFISLWMGPRMIAHLQKLSFGQVVRNDGPESHFSKRGTPTMGGIMILTAIVISVLLWAYPSNPYVWCVLVVLVGYGVIGFVDDYRKVVRKDTKGLIARWKYFWMSVIALGVAFALYLAGKDTPATQLVVPFFKDVMPQLGLFYILLAYFVIVGTGNAVNLTDGLDGLAIMPTVFVAGGFALVAWATGNMNFASYLHIPYLRHAGELVIVCTAIVGAGLGFLWFNTYPAQVFMGDVGSLALGGALGIIAVLLRQEFLLVIMGGVFVVETLSVILQVGSFKLRGQRIFRMAPIHHHYELKGWPEPRVIVRFWIISLMLVLIGLATLKVR
B8: mraY V28A (protein)
chain: B7 chain with W5L, V28A
B9: mraY V28Q (protein)
chain: B7 chain with W5L, V28Q
B10: mraY V28D (protein)
chain: B7 chain with W5L, V28D
B11: mraY M78A (protein)
chain: B7 chain with W5L, M78A
B12: mraY M78W (protein)
chain: B7 chain with W5L, M78W
B13: mraY M78Q (protein)
chain: B7 chain with W5L, M78Q

What follows are proteins tested against Escherichia coli (laboratory strain) (assay: barcode share on antibiotic plates over drug-free plates; higher = less susceptible). Conditions: antibiotic: carbenicillin; 2× MIC (3.1 µg/mL).
Method: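 A pool of E. coli strains, each edited to carry one amino-acid change in an essential protein, was grown for 48 h on minimal glucose agar with or without antibiotic; strain barcodes were sequenced; mean of two replicates.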
In the case of B1, the “fold change of barcode share” value is reported as 0.321 ± 0.019. B2 was tested, and the “fold change of barcode share” value was 1.43 ± 0.18. B3 was tested, and the “fold change of barcode share” value was 1.71 ± 0.44. B4 was tested, and the “fold change of barcode share” value was 1.66 ± 0.68. For B5, the “fold change of barcode share” value was 0.549 ± 0.016. B6 was tested, and the “fold change of barcode share” value was 1.21 ± 0.94. B7 was tested, and the “fold change of barcode share” value was 0.394 ± 0.27. For B8, the “fold change of barcode share” value was 0.368 ± 0.16. In the case of B9, the “fold change of barcode share” value is reported as 0.227 ± 0.059. In the case of B10, the “fold change of barcode share” value is reported as 0.347 ± 0.22. With B11 the “fold change of barcode share” value was 0.339 ± 0.086. In the case of B12, the “fold change of barcode share” value is reported as 0.328 ± 0.24. For B13, the “fold change of barcode share” value was 0.23 ± 0.038.

Same assay, conditions: antibiotic: gentamicin; 2× MIC (MIC 0.45 µg/mL)
B1 was tested, and the “fold change of barcode share” value was 0.0103 ± 0.009. In the case of B2, the “fold change of barcode share” value is reported as 0.0156 ± 0.017. In the case of B3, the “fold change of barcode share” value is reported as 0.0108 ± 0.011. B4 was tested, and the “fold change of barcode share” value was 0.0389 ± 0.029. For B5, the “fold change of barcode share” value was 0.0129 ± 0.00055. For B6, the “fold change of barcode share” value was 0.0709 ± 0.031. In the case of B7, the “fold change of barcode share” value is reported as 0.0673 ± 0.06. B8 was tested, and the “fold change of barcode share” value was < 0.0158. B9 was tested, and the “fold change of barcode share” value was < 0.00866. For B11, the “fold change of barcode share” value was 0.0509 ± 0.059. B12 was tested, and the “fold change of barcode share” value was < 0.00845. With B13 the “fold change of barcode share” value was 0.0952 ± 0.12.
